Read counts are not given, so values of variants with three or more changes are uncertain.

Here are results for 167 variants from the RNAGym collection of RNA variant scans (doi:10.7554/elife.90254).

B1: LINE1-mini (parent)
chain: GGCAGAGCUCAACACAGCGUGGCAAAGUGGCUGUGGCUAGACUGCC

The variants in this data set derive from B1. The data set can be described thus: self-cleavage, relative activity (ratio to wild type); higher = more cleavage; in vitro, sequencing; the parent is a self-cleaving ribozyme.
Regarding C3U C10A C18U, the self-cleavage came to 0. Turning to G2C A6C C13U G33A G36C, the self-cleavage amounted to 0.02. In the case of G5U C23G C31U U32A, the self-cleavage stood at 0.09. With G5U G7C C8G G17C, the self-cleavage came out at 0.17. With G5U C8A A14U C31G the figure was 0.18; with C10A C23U A39C C42G, 0. As to A6U C31U G33A G44U, the self-cleavage was 0.1. Consider C13G U20C G33U, for which the self-cleavage is 0.01. With A4C G17U G30C G36A G40C, the self-cleavage came out at 0.09. With G5U C8A A12C the figure was 0.01; with C15U G21C G22A, 2.78; with G5C G33U G35A, 0.08.

Consider G35U C37U G40U C42A C45U, for which the self-cleavage was 0.03. As to G1A A4C C15A G27C U34C, the self-cleavage was 0.05. For C13A G17U G36U, the self-cleavage is 0.07. With U9G C18A A24G C31U the figure was 0. A6U U9G C18A G27C A39C: the self-cleavage came out at 0.25. Take U28C U34G G35A: the self-cleavage amounted to 0.03. With A4G A12U U34G the figure was 0.04; with C15A G22A G30U C37U C45A, 0.09; with A14U A16U G22A, 0.03.

As for A14C G29U G30A C31U, the self-cleavage worked out at 0.07.

With G7C C8G C10A A24G C37G U43A, the self-cleavage was determined as 0.01.

On to G17A G19A A24G A26C U28A U32C, for which the self-cleavage is 0.04. As to C3G U9G G29U A41U, the self-cleavage was determined as 0.14. With A26U U34C U38A the figure was 0.04.

Consider C13G G17A G21A G35C G36C, for which the self-cleavage was determined as 0.08.

G2C G7A G19C: the self-cleavage was 0.11. As to C8A A12C U28C U34G, the self-cleavage is 0.03. Consider G1A G2U G7A U20A, for which the self-cleavage was 0.21.

With G2A G27C U34G, the self-cleavage is 0.09. The figure for G2C U20C C23A G29A C42G G44C is 0.13. On to C3G G29C G40C, for which the self-cleavage stood at 0.02. Turning to A16C C37G C42U, the self-cleavage came to 0.03. On to A14G G35A C46U, for which the self-cleavage was found to be 0.08.

With C3U G7U C10A G19A C37G, the self-cleavage worked out at 0.01. As for A26U G35A C45G, the self-cleavage came out at 0.06. Turning to G2U C3U A12G G17U U20A U32G C46G, the self-cleavage amounted to 0.31. With C3A A4U G44A the figure was 0.64. A4U A11U A24C A26G G33A: the self-cleavage came to 0.01. With U9C U34C U43A the figure was 0.04; with G29C C31U U34C C45U, 0.05.

Consider A24C C31G C46A, for which the self-cleavage was found to be 0.07.

On to G5A U9G G17C A24G U34C G40U C42G, for which the self-cleavage turned out to be 0.24. Turning to C13U G35C C37A C42A, the self-cleavage is 0.08.

Consider A25G G36U C42G, for which the self-cleavage came out at 0.08. Consider G5A A6U G21C G35A, for which the self-cleavage stood at 0.1. With C3U C8U A41G, the self-cleavage turned out to be 0.03.

Take C3G U34C C42A: the self-cleavage is 0.21.

Regarding A25U C37A U38C, the self-cleavage worked out at 0.02. As for C10A A16G C37U G44A, the self-cleavage worked out at 0.01. The figure for G7A C18G C23U G35C is 0.06; for C8U U9C G33U it is 0.01. For the variant G7C C15A C23G, the self-cleavage is 0.08. Regarding G1C G5A A6G U34G, the self-cleavage was determined as 0.01. G5A U32C G36C C46A: the self-cleavage was 0.03. With A11C A26U A41U, the self-cleavage is 0.19.

On to G2A A6G U34A U38A, for which the self-cleavage is 0.04. C8U A24U G30C C46U: the self-cleavage was determined as 0.12.

Take G27C U28A G30A: the self-cleavage is 1.09. With G2A A24U C31G, the self-cleavage stood at 0.08.

For C10A A11U C18G, the self-cleavage was determined as 0.06. Turning to C10U C15A U32A G40C C42A C45U, the self-cleavage worked out at 0.

Consider A24U G29U G36C G44C, for which the self-cleavage worked out at 0.04.

For A4C U20C G21C G33A C45U, the self-cleavage amounted to 0.12.

For C23A G29A G30C G36A, the self-cleavage was 0.23. Consider A11C A16C G35U C37A, for which the self-cleavage was 0.02. The figure for G5U G21C A24U is 0.03. In the case of A14U C23A G27U G35U G36U A41C, the self-cleavage came to 0.02. Take A14C U28A C46G: the self-cleavage turned out to be 0.11. The figure for G2U U9A G30A C46U is 0.1. With U9G A16U G30C U43A G44C C46G the figure was 0.01; with C18A C37A C42U C46G, 0.03; with C3U U32C U43A C46U, 0.05. As to G2A G7C C18A, the self-cleavage amounted to 0.02.

For A16C C18U U38A C46A, the self-cleavage came out at 0.03. With C13U U34A C37U the figure was 0.01. With C3G G17A C46A the figure was 0.21. On to C3A C10A G40U, for which the self-cleavage was determined as 0.07. In the case of A11U A16C C46U, the self-cleavage was 0.01.

Turning to U34A C42U C46U, the self-cleavage was 0.06. As for A6U G21U C31U G33U, the self-cleavage came to 0.04. For the variant U28C U32C G35U G36C C45A C46G, the self-cleavage worked out at 0.07. For G1U G5C A16U G40C, the self-cleavage turned out to be 0.03. Take C3G A25C A26U C37G: the self-cleavage stood at 0.45. Take C8A A14G U32G G44A: the self-cleavage turned out to be 0.39. Turning to C3A G5A C13G A14C, the self-cleavage was 0.68. Take G7U A41G C42G: the self-cleavage was found to be 0.06. On to C13U G21A C46G, for which the self-cleavage stood at 0.07. Consider C3U A12G G17C, for which the self-cleavage is 0.03. Turning to C8A A14U C45U, the self-cleavage worked out at 0.1.

C10A G17U U32C G40C: the self-cleavage was 0. With G27A U32C G33A, the self-cleavage was determined as 0.03. The figure for A6C G7C A16G C18U A25U U34A G36C A41U is 0.13; for G1C C3A C23U C37U it is 0.12. For C8G C18A G22A, the self-cleavage turned out to be 0.06.

Turning to A16G C18U U28G C46G, the self-cleavage turned out to be 0.03.

Turning to G1A C3A U38G A41G, the self-cleavage amounted to 0.68. Regarding G5C C8A C15A G19C, the self-cleavage is 0.14. As to G5U A16U G35U, the self-cleavage stood at 0.22. On to G1U C13U A16G G22U U32C G36A G40U, for which the self-cleavage came out at 0.02. With C23A G30A G36C G44C, the self-cleavage worked out at 0.06. Regarding G7U A12G A14U G17U, the self-cleavage was 0.04. With C13G G29C G30U C31U the figure was 0.07.

Consider G17C G33A C37U, for which the self-cleavage came out at 0.02. In the case of G2C C15A C23U A24U C46U, the self-cleavage was 0.01. On to C3A A14U C15G, for which the self-cleavage amounted to 0.05. G2U A4U G21U C37U: the self-cleavage is 0.05.

For the variant C23U U32A G33A, the self-cleavage stood at 0.05.

As to C23A A24U G30U G36U, the self-cleavage was 0.04. With U9C G36C C42G, the self-cleavage was found to be 0.

On to G1A G33A C37A, for which the self-cleavage worked out at 0.05. As for C10A G35U G40U, the self-cleavage is 0.02. The figure for A4C G19A G35A C46A is 0.04; for A16C G22A C42G it is 0.01. Regarding C3A G5C A26U, the self-cleavage stood at 0.43. Turning to A24U A25G G30A A39U, the self-cleavage came out at 0.35.

In the case of C18U U32C G33U, the self-cleavage was found to be 0.02.

As to U28G C31U G33C, the self-cleavage was determined as 0.01. As to C15U G22U U43A, the self-cleavage turned out to be 0.1. C13A U34C G40U: the self-cleavage was 0.01. Consider G2C U9C A11U G19C C23G G30U, for which the self-cleavage came out at 0. Consider A4C C8A C18U, for which the self-cleavage amounted to 0.1. A16G G27C C37G C46G: the self-cleavage was determined as 0.02. Consider C3U G17C U20A G22A G35C A41C, for which the self-cleavage is 0.03.

As to A11G C13A U20C, the self-cleavage turned out to be 0.04. As for G22U A25C U32C G33U A41C, the self-cleavage was 0.03.

With C3U A4G U43G C46U, the self-cleavage stood at 0.02.

Regarding C8G G19C G36A G40A, the self-cleavage turned out to be 0.02. For the variant C8U C18G A24U G27C A41U U43G, the self-cleavage is 0.09. With C3A G29U G30U U34C A39G A41C C45U the figure was 0.05; with U20C A24U U28A G33U, 0.02; with G27U U28G G30U G33U, 0.33. In the case of C18U G27C G29A C31U, the self-cleavage is 0.02. In the case of C3A C10G U20G G44U, the self-cleavage is 0.06. As for C3A A6U A26G, the self-cleavage came out at 0.46. Regarding G2U G33U U38A, the self-cleavage worked out at 0.02.

With A6G U9C G22A C23U A26C C42U, the self-cleavage was determined as 0.04.

Regarding A11U G33U A41U G44U, the self-cleavage worked out at 0. Regarding G5C A25C A26U G33A, the self-cleavage came out at 0.03. On to U9A A14C A16G C23U A25U, for which the self-cleavage was found to be 0.03. Take G17A C37U G44C: the self-cleavage came out at 0.03. With C8A C13A C18G G21A C45U, the self-cleavage stood at 0.14. In the case of G30A C37G C46G, the self-cleavage came out at 0.02. For C13A G30C G33U G35C, the self-cleavage stood at 0.54. As for G5C G21C C45G, the self-cleavage came out at 0.03. Take U20A C23G G29A: the self-cleavage is 0.52. Regarding C10G G17U C23G G40U C42U C45G, the self-cleavage is 0.02.

Consider G5U G17A G35U G44U, for which the self-cleavage was found to be 0.02. Regarding C10U C15U G17A G36U U38A G40A, the self-cleavage was found to be 0.04. With G2U G7U U9G C13A, the self-cleavage was 0.06. On to A4U U9G G17A, for which the self-cleavage came out at 0.04. For C3G G19U G27A U43A, the self-cleavage worked out at 0.05. For C8U A14U C31U A41U C42A, the self-cleavage is 0. Turning to A4G G5A G7U C37G C45U, the self-cleavage came out at 0.01. In the case of G2A A4U G21A U28A A39C, the self-cleavage stood at 0.45. On to G2U A12G C37G G44U, for which the self-cleavage worked out at 0.1. C3G G5U G29U G30U G33A A41U: the self-cleavage turned out to be 0.45. For the variant A4U U20A U34C, the self-cleavage was 0.37. For C13G G17A G44A, the self-cleavage is 0.04. With G7U A26C U28A the figure was 0.06. On to A6U C37A C46A, for which the self-cleavage worked out at 0.03.

Take A11U A12G C31A: the self-cleavage stood at 0.02.

On to C13U U28G G30C, for which the self-cleavage stood at 0.05.

For the variant G7A A12G A14G U20C A24C A25G U34C, the self-cleavage was 0.04. With C10U A24G U38A the figure was 0.01; with A6C C8U G36A C45A, 0.07.
